The text below walks through data of the supplement of paper PMC3334620.

In all, about 33,000 sequences were measured (“E-score (-0.5 to 0.5)”: median about -0.016, highest 2% from about 0.31 on). Some of the results follow.

For the experiment, the target named is Cst6 (UniProt P40535). As to the kind of experiment: PBM E-score (8-mer binding enrichment) (E-score (-0.5 to 0.5)); higher = stronger / more preferred TF binding; most listed sequences are background and not binding sites. The following applies: protein concentration: 200 nM; construct: GST-DNA-binding domain. The gist of the method:
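The E-score, a modified Wilcoxon-Mann-Whitney statistic, was computed by the Universal PBM Analysis Suite for every ungapped eight-base word pooled with its reverse complement. Scans behind it were normalised with masliner after bound GST-tagged yeast transcription factors were detected with fluorescent anti-GST. The proteins, at about 100-200 nM, had been applied to universal all-10-mer Agilent arrays made double-stranded by primer extension.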
On to CAATGTAG, for which the “PBM E-score” value is -0.254.

On to AGGTCACC, for which the “PBM E-score” value amounted to 0.0958.

Consider AGCCAGAG, for which the “PBM E-score” value was -0.293.

In the case of AGATCATG, the “PBM E-score” value was found to be 0.137.

For ACGCCGGG, the “PBM E-score” value is -0.254.

As for ACCCAGCT, the “PBM E-score” value is -0.238.

Take CCTGTCTC: the “PBM E-score” value is -0.318.

AAGTGCAC: the “PBM E-score” value amounted to 0.0174.

With AATAATAC, the “PBM E-score” value came to 0.197.

For the sequence TACAGGCA, the “PBM E-score” value worked out at 0.128.

As to GTGTACAC, the “PBM E-score” value was determined as 0.162.

For AGGGCATA, the “PBM E-score” value worked out at 0.0409.

Regarding CGTGTTAC, the “PBM E-score” value is 0.096.

As for GTGAGTAA, the “PBM E-score” value was 0.0814.

Regarding ATTAAATC, the “PBM E-score” value was 0.212.

GTATAATA: the “PBM E-score” value was 0.288.

With ATTGATTA, the “PBM E-score” value was found to be 0.308.

As for ACGTCGCC, the “PBM E-score” value came to 0.228.

Consider GTCCTAAA, for which the “PBM E-score” value was found to be 0.0345.

On to ACCGGGGG, for which the “PBM E-score” value was -0.353.

With GAAATTGC, the “PBM E-score” value turned out to be 0.149.

Turning to GGTTACAC, the “PBM E-score” value was 0.017.

As for AAACCACG, the “PBM E-score” value is -0.00602.

In the case of CCCGAGAC, the “PBM E-score” value was -0.189.

In the case of ACCTGCAC, the “PBM E-score” value was -0.0765.

With CATATCGC, the “PBM E-score” value was 0.068.

Take GGGGGAAC: the “PBM E-score” value is -0.43.

Regarding CGGTGGTA, the “PBM E-score” value was -0.213.

With GTAGGTCA, the “PBM E-score” value was determined as 0.0527.

Turning to GAGTTGGA, the “PBM E-score” value is -0.0506.

As to GACATCCA, the “PBM E-score” value turned out to be 0.0103.

For GCCAATCA, the “PBM E-score” value was -0.176.

As to GAGGCAGC, the “PBM E-score” value was -0.201.

As for CGCTAAGC, the “PBM E-score” value was found to be 0.0541.

AGGACTGA: the “PBM E-score” value is -0.0524.

Take AGTCATTA: the “PBM E-score” value came to 0.0194.

Consider ACAGAGAC, for which the “PBM E-score” value is -0.105.

With ACACTCGC, the “PBM E-score” value is 0.00886.

GTATGGGA: the “PBM E-score” value is -0.197.

Take GGATCTCA: the “PBM E-score” value was -0.146.

Take CGTGATAC: the “PBM E-score” value was 0.089.

As for AATGCGGC, the “PBM E-score” value turned out to be 0.266.

For CCTCCCTC, the “PBM E-score” value is -0.162.

Take GCAACTCC: the “PBM E-score” value was -0.207.

In the case of ATCAGATG, the “PBM E-score” value is -0.0312.

In the case of GAACCCAA, the “PBM E-score” value is -0.141.

Take ATTTGACG: the “PBM E-score” value turned out to be 0.292.

Consider ACTTAGGC, for which the “PBM E-score” value was -0.205.

Turning to ACCCCGTC, the “PBM E-score” value is -0.348.

CTGCCAAC: the “PBM E-score” value was -0.229.

Consider GGCCCAAC, for which the “PBM E-score” value was -0.169.

Regarding GCTCTGAC, the “PBM E-score” value amounted to 0.0346.

As to ACCACATG, the “PBM E-score” value turned out to be 0.129.

As for CCGGAACA, the “PBM E-score” value was -0.0828.

On to TAAATGAA, for which the “PBM E-score” value worked out at 0.123.

With ACGGCCAG, the “PBM E-score” value was -0.175.

As for AAAGTCAA, the “PBM E-score” value is 0.0155.

In the case of AGTTAAAC, the “PBM E-score” value is 0.159.

With AACCATGC, the “PBM E-score” value was -0.0109.

With CTATCTAA, the “PBM E-score” value is -0.129.

As to GCAGGCAA, the “PBM E-score” value is -0.0304.

AGTCCAGG: the “PBM E-score” value is -0.304.

For CAACCGCG, the “PBM E-score” value is 0.226.

Take AACAAGAT: the “PBM E-score” value was found to be 0.06.

For the sequence CGATGCAC, the “PBM E-score” value was -0.106.

As for AAATCAAT, the “PBM E-score” value was 0.199.

Regarding CGGCCCCG, the “PBM E-score” value is -0.138.

For AGGGTTAC, the “PBM E-score” value is -0.0169.

As for AGAACGGG, the “PBM E-score” value was -0.0993.

As to CTGAAAAA, the “PBM E-score” value is -0.0734.

Consider CCTTATTC, for which the “PBM E-score” value is -0.0876.

For the sequence ACAACGTA, the “PBM E-score” value stood at 0.224.

Consider ACACCGCC, for which the “PBM E-score” value is -0.113.

As for GATCACAC, the “PBM E-score” value is -0.0313.

Turning to AGGGTTTC, the “PBM E-score” value is -0.232.

On to CGGTTCCA, for which the “PBM E-score” value was -0.153.

Regarding GCTGTCAC, the “PBM E-score” value stood at 0.0464.

As to CACTCTAG, the “PBM E-score” value was -0.0706.

As for CCCGGAGG, the “PBM E-score” value was -0.327.

As for ATGGTAAG, the “PBM E-score” value is -0.138.

Consider GAAATTCC, for which the “PBM E-score” value is -0.116.

ACCTACAA: the “PBM E-score” value was 0.183.

Turning to CTCGACTC, the “PBM E-score” value is -0.113.

As to GCGGACGC, the “PBM E-score” value was determined as 0.0221.

Consider CCCATTGC, for which the “PBM E-score” value was -0.0276.

On to ACAGGTAC, for which the “PBM E-score” value was -0.0446.

Regarding TATCAGGA, the “PBM E-score” value was 0.111.

For CAAACATC, the “PBM E-score” value turned out to be 0.0453.

As to AACGCGCC, the “PBM E-score” value was determined as 0.0352.

Regarding AAATAGTT, the “PBM E-score” value came out at 0.141.

ATCACTGC: the “PBM E-score” value was 0.224.

With CGCCTCCA, the “PBM E-score” value was -0.0617.

Consider GAACGATC, for which the “PBM E-score” value was -0.0783.

For TCACTGGA, the “PBM E-score” value came to 0.0607.
